# Reference: the supplement of paper PMC3334620
# In all, about 33,000 sequences were measured (“E-score (-0.5 to 0.5)”: median about -0.021, highest 2% from about 0.32 on). The list shows a part of the results.
# Biological target: T1, Zap1 (UniProt P47043)
# T1 sequence: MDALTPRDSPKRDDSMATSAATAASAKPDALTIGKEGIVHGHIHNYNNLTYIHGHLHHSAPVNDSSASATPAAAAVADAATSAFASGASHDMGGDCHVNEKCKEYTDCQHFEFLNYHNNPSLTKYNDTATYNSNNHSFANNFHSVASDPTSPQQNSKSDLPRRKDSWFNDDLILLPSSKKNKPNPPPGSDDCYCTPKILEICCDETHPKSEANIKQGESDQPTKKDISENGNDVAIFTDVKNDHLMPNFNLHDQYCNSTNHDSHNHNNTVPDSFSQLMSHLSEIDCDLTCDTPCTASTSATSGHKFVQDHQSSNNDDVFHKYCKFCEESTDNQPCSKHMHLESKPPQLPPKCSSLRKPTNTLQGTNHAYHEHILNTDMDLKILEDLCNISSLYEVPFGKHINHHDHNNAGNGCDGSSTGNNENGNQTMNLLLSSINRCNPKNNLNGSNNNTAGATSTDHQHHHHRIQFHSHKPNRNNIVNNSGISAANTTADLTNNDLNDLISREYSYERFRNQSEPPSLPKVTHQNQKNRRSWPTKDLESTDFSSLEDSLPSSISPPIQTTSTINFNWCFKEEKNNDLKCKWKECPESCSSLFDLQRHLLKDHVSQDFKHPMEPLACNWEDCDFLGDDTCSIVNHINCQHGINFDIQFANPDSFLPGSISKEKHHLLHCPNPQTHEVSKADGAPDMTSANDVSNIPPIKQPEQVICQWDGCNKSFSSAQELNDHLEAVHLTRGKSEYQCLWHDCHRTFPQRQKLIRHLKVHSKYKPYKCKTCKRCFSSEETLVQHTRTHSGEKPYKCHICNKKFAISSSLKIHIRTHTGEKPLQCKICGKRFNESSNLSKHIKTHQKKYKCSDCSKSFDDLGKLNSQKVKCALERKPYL
# Assay: PBM E-score (8-mer binding enrichment) (E-score (-0.5 to 0.5)); higher = stronger / more preferred TF binding; most listed sequences are background and not binding sites
# Conditions: protein concentration: 200 nM; construct: GST-full length
# Summary of the method: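 Universal all-10-mer Agilent arrays, fresh or stripped once, were converted to double-stranded form by primer extension. GST-tagged yeast transcription factors from PURExpress in vitro transcription/translation, full-length or DNA-binding domain only, were applied at about 100-200 nM and detected with fluorescent anti-GST. After masliner normalisation, the Universal PBM Analysis Suite scored each ungapped eight-base word together with its reverse complement by E-score.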
row,Sequence,PBM E-score
1,CCCTGCGA,0.0758
2,CGTCGGCA,-0.215
3,CGTCGCAA,0.0459
4,CGGCGTGA,-0.192
5,AGGGTGCA,-0.0554
6,CCTACCAA,0.11
7,CTTTCTGA,0.0969
8,AACTTGAA,0.0533
9,AAATCACC,0.216
10,GTCAAAGA,0.123
11,GCACAGGA,-0.249
12,AATCCGCT,-0.151
13,GGATATAC,-0.0383
14,ACAGCTCA,-0.137
15,TACGTAGA,0.0576
16,ATAGACAG,-0.0693
17,CATTCCGC,-0.12
18,CTCGGTTC,-0.0265
19,AGAGTGCT,-0.0722
20,AAGTATTC,-0.105
21,ATTTGGCC,-0.0727
22,CAGCTCAA,-0.0501
23,AACGCCTT,-0.0928
24,ATCATAAT,0.0921
25,CGGCGTTA,0.0618

row,Sequence,PBM E-score
1,CTTACGAC,-0.0242
2,CGCATTAG,-0.0717
3,AAAGTCAG,-0.0834
4,AAAACAAG,0.0929
5,CGTGCGAG,-0.0393
6,CAGTGTGG,-0.168
7,AGCACGTA,-0.26
8,GCCCCTAA,0.136
9,CAAACTGC,0.0385
10,GATACGCC,-0.192
11,ACGCGTAC,-0.0321
12,AATTAACT,0.0482
13,AAGCGTAT,-0.227
14,AAGCGCTA,-0.082
15,CCTCGCCG,-0.139
16,CGCGGGCA,0.125
17,CAGCCTAC,0.0391
18,CTCTACGC,-0.0318
19,ACGGGCGC,-0.188
20,GCCCGTTA,0.0718
21,CCCCCATA,-0.0168
22,GCAATACA,0.164
23,ATATGCTG,-0.158
24,CAAGATGC,-0.0715
25,ACATCGCA,-0.133

row,Sequence,PBM E-score
1,GCTTCGTA,-0.0463
2,CATCAGGC,-0.16
3,CAAGTATC,-0.0887
4,ATAAAATC,-0.0354
5,AGTCACTA,0.14
6,ACGAGGTG,0.144
7,ACAATGTA,0.101
8,TCACATAA,0.154
9,GCCCGAGC,-0.151
10,ATCGTTAC,-0.0624
11,ACCACGCT,-0.117
12,ATAGGTTG,0.16
13,GAGAGTAA,0.0833
14,ATGAGGGA,-0.25
15,AGATGTTG,-0.165
16,AGTTTAAA,0.207
17,GACGCTCA,-0.0401
18,GCAGAAGC,-0.276
19,AGGTCGGG,-0.0173
20,AGCTAGCA,-0.204
21,ACAGTTAT,0.131
22,GACCCCAA,0.172
23,CCATGTGC,0.0395
24,AATGCAGT,-0.0643
25,ACTGGATG,-0.125

row,Sequence,PBM E-score
1,AGCCAGGG,-0.0473
2,AGCCTCTC,-0.189
3,CCACACCG,0.0203
4,CAGCAGCG,-0.0602
5,CCTGCGAC,-0.142
6,CGTAAGCA,-0.143
7,CAGTCCAG,-0.16
8,AGATAAAC,0.156
9,CGGGCCAG,-0.195
10,CTTGGGGC,0.0259
11,CAGCGCAA,-0.148
12,AAGACATG,-0.277
13,GGCCCAAA,0.0929
14,ACTGGACC,0.0613
15,GAATGTGC,-0.196
16,ATCATGAA,0.119
17,GATTATAC,0.0748
18,AAGCCAGG,-0.166
19,ATCCCCGC,-0.0253
20,CCGACCAG,0.0232
21,TGCTGCAA,0.106
22,CTACTCGC,-0.18
23,ATAGGTGA,0.0727
24,CCGGAACC,0.279
25,CAGAGCAA,-0.0527

row,Sequence,PBM E-score
1,CATGACTC,-0.0866
2,CTGGTGCA,-0.12
3,TGGCGGAA,-0.103
4,TCCCCCAA,-0.232
5,GGATTTAA,0.0103
6,ACCGGAAA,0.202
7,CTGTGATC,0.0348
8,AAATCTAT,0.0866
9,GCCCATAC,0.0694
10,GACTGTCA,-0.047
11,CAAGGGAA,-0.00803
12,CTTTAATC,0.109
13,CAGAAGTC,-0.293
14,TATAGCAA,-0.0234
15,AGTGAACC,0.165
16,CACGAAAG,0.104
17,ACCGCGCC,-0.0982
18,GTCTTAAA,0.0565
19,CATACGTC,-0.17
20,CGCCCTAA,-0.126
21,ATAATCTA,0.251
22,GGCGTCCC,-0.0733
23,ATAAGACC,0.0755
24,CAGCCAGC,-0.396
25,CGCCGGAA,-0.0648

row,Sequence,PBM E-score
1,AACCTTGA,0.429
2,ACCGGCCT,-0.00629
3,CTGTCCCC,-0.235
4,GACACCAA,-0.0435
5,GGCGCCTA,-0.26
6,AATACGGA,-0.106
7,CTTTGTTC,0.208
8,AACGAGAG,-0.138
9,TAGAGCTA,-0.0548
10,AAGGGTGT,0.316
11,AGATTAAT,0.0696
12,CCCACGGA,-0.0341
13,GGTCTCAC,-0.0454
14,ATGGTACG,0.176
15,ATGCACAC,-0.00754
16,AATTCGTG,-0.0517
17,CATGATAG,0.0631
18,CCTTGCTC,-0.092
19,CAAAGCGA,-0.00778
20,CGAACTTC,-0.132
21,CTAAGCGC,-0.0701
22,CAGCCTGC,-0.21
23,AAGGACGG,-0.256
24,ACAAGCAA,0.0842
25,CCGTTCCG,0.00545

row,Sequence,PBM E-score
1,CGATGTAC,0.064
2,ACCCCAGA,0.224
3,AGCTGCCG,-0.159
4,ACCCGCCA,0.085
5,AGACCCAG,-0.18
6,GTCTACAA,-0.0956
7,CTCGGACC,-0.116
8,GAATAATC,0.143
9,CAGATTAA,0.118
10,AACCGTAA,0.231
11,GTCTGAAA,-0.0251
12,GTTTCATA,-0.0343
13,AACTTCGG,0.0485
14,ATTTCAGA,-0.115
15,CGCAACGA,0.13
16,TTCGGCAA,-0.00159
17,CAGATGCG,-0.106
18,AAACTAGG,0.166
19,CTCAAAAA,0.0917
20,CGTTCCAA,0.0539
21,TAAGAAAA,0.129
22,GGTCCCCA,0.151
